According to EPA's CvTdb concentration-time database:
This continues a long series; more values of the same kind are listed elsewhere.

Legend:
[1] = system: Rat; assay: concentration in brain after dosing; conditions: 10 min; dosed: 2-Methyltetrahydrofuran; 10 mg/kg; iv; Female; F344
[2] = system: Rat; assay: concentration in brain after dosing; conditions: 0.25 h; dosed: 2-Methyltetrahydrofuran; 10 mg/kg; oral; Female; F344
[3] = system: Rat; assay: concentration in brain after dosing; conditions: 1.5 h; dosed: 2-Methyltetrahydrofuran; 400 mg/kg; oral; Female; Harlan Sprague Dawley
[4] = system: Rat; assay: concentration in brain after dosing; conditions: 1 h; dosed: 2-Methyltetrahydrofuran; 10 mg/kg; iv; Male; F344
[5] = system: Rat; assay: concentration in brain after dosing; conditions: 2 min; dosed: 2-Methyltetrahydrofuran; 10 mg/kg; oral; Female; F344
[6] = system: Rat; assay: concentration in brain after dosing; conditions: 1.5 h; dosed: 2-Methyltetrahydrofuran; 100 mg/kg; oral; Male; Harlan Sprague Dawley
[7] = system: Rat; assay: concentration in brain after dosing; conditions: 2 min; dosed: 2-Methyltetrahydrofuran; 10 mg/kg; oral; Female; F344; remark: listed apart in the source
[8] = system: Rat; assay: concentration in plasma after dosing; conditions: 5 min; dosed: 2-Methyltetrahydrofuran; 400 mg/kg; oral; Male; F344
[9] = system: Rat; assay: concentration in plasma after dosing; conditions: 20 min; dosed: 2-Methyltetrahydrofuran; 100 mg/kg; oral; Female; Harlan Sprague Dawley
[10] = system: Rat; assay: concentration in plasma after dosing; conditions: 3 h; dosed: 2-Methyltetrahydrofuran; 30 mg/kg; oral; Female; F344
[11] = system: Rat; assay: concentration in plasma after dosing; conditions: 5 min; dosed: 2-Methyltetrahydrofuran; 100 mg/kg; oral; Female; Harlan Sprague Dawley
[12] = system: Rat; assay: concentration in plasma after dosing; conditions: 1.5 h; dosed: 2-Methyltetrahydrofuran; 10 mg/kg; oral; Female; F344
[13] = system: Rat; assay: concentration in plasma after dosing; conditions: 10 min; dosed: 2-Methyltetrahydrofuran; 100 mg/kg; oral; Male; Harlan Sprague Dawley
[14] = system: Rat; assay: concentration in plasma after dosing; conditions: 20 min; dosed: 2-Methyltetrahydrofuran; 30 mg/kg; oral; Female; F344
[15] = system: Rat; assay: concentration in plasma after dosing; conditions: 0.25 h; dosed: 2-Methyltetrahydrofuran; 30 mg/kg; oral; Female; F344
[16] = system: Rat; assay: concentration in plasma after dosing; conditions: 0.75 h; dosed: 2-Methyltetrahydrofuran; 100 mg/kg; oral; Male; Harlan Sprague Dawley
[17] = system: Rat; assay: concentration in plasma after dosing; conditions: 20 min; dosed: 2-Methyltetrahydrofuran; 10 mg/kg; oral; Male; F344
[18] = system: Rat; assay: concentration in plasma after dosing; conditions: 2 min; dosed: 2-Methyltetrahydrofuran; 10 mg/kg; oral; Male; F344
[19] = system: Rat; assay: concentration in plasma after dosing; conditions: 2 min; dosed: 2-Methyltetrahydrofuran; 10 mg/kg; oral; Female; F344
[20] = system: Rat; assay: concentration in plasma after dosing; conditions: 4 h; dosed: 2-Methyltetrahydrofuran; 100 mg/kg; oral; Female; Harlan Sprague Dawley
[21] = system: Rat; assay: concentration in plasma after dosing; conditions: 0.25 h; dosed: 2-Methyltetrahydrofuran; 30 mg/kg; oral; Male; F344
[22] = system: Rat; assay: concentration in plasma after dosing; conditions: 3 h; dosed: 2-Methyltetrahydrofuran; 10 mg/kg; iv; Female; F344
[23] = system: Rat; assay: concentration in plasma after dosing; conditions: 1.5 h; dosed: 2-Methyltetrahydrofuran; 100 mg/kg; oral; Male; Harlan Sprague Dawley
[24] = system: Rat; assay: concentration in plasma after dosing; conditions: dosed: Bromochloroacetic acid, 80 mg/kg, iv, Female, Harlan Sprague-Dawley
[25] = system: Rat; assay: concentration in plasma after dosing; conditions: dosed: Fluorotelomer alcohol 8+2, 80 mg/kg, oral, Female, Harlan Sprague Dawley
[26] = system: Rat; assay: concentration in plasma after dosing; conditions: dosed: Formamide, 600 mg/kg, oral, Male, Harlan Sprague Dawley
[27] = system: Rat; assay: concentration in plasma after dosing; conditions: dosed: Formamide, 600 mg/kg, oral, Male, Harlan Sprague Dawley; remark: listed apart in the source
[28] = system: Rat; assay: concentration in plasma after dosing; conditions: 5 h; dosed: Pyridine; 200 mg/kg; oral; Female; F344
[29] = system: Rat; assay: concentration in plasma after dosing; conditions: 10 min; dosed: Pyridine; 50 mg/kg; oral; Female; F344
[30] = system: Rat; assay: concentration in plasma after dosing; conditions: dosed: Pyridine, 100 mg/kg, oral, Male, F344
[31] = system: Rat; assay: concentration in plasma after dosing; conditions: dosed: Pyridine, 5 mg/kg, iv, Female, F344
[32] = system: Rat; assay: concentration in plasma after dosing; conditions: 20 min; dosed: Pyridine; 10 mg/kg; oral; Male; Harlan Sprague Dawley
[33] = system: Rat; assay: concentration in plasma after dosing; conditions: 1 h; dosed: Pyridine; 50 mg/kg; oral; Female; F344
[34] = system: Rat; assay: concentration in plasma after dosing; conditions: 10 min; dosed: Pyridine; 10 mg/kg; oral; Male; Harlan Sprague Dawley
[35] = system: Rat; assay: concentration in plasma after dosing; conditions: 1 h; dosed: Pyridine; 50 mg/kg; oral; Male; Harlan Sprague Dawley
[36] = system: Rat; assay: concentration in plasma after dosing; conditions: dosed: Pyridine, 25 mg/kg, oral, Female, F344
[37] = system: Rat; assay: concentration in plasma after dosing; conditions: dosed: Pyridine, 25 mg/kg, oral, Female, F344; remark: listed apart in the source
[38] = system: Rat; assay: concentration in plasma after dosing; conditions: dosed: Pyridine, 5 mg/kg, iv, Female, Harlan Sprague-Dawley

CC1CCCO1 (configuration not stated) [2-Methyltetrahydrofuran]
Conditions	concentration in brain [µg/g]	concentration in plasma [ng/mL]
[1]	4.7	–
[2]	3.25	–
[3]	105	–
[4]	1.71	–
[5]	1.71	–
[6]	29.4	–
[7]	2.14	–
[8]	–	198000
[9]	–	49300
[10]	–	569
[11]	–	40200
[12]	–	208
[13]	–	59600
[14]	–	20100
[15]	–	81.4
[16]	–	38800
[17]	–	2810
[18]	–	1250
[19]	–	753
[20]	–	13300
[21]	–	16200
[22]	–	72.7
[23]	–	37800

O=C(O)C(Cl)Br (configuration not stated) [Bromochloroacetic acid]
[24]
Conditions	concentration in plasma [ng/mL]
1 h	22000
2 h	3760

OCCC(F)(F)C(F)(F)C(F)(F)C(F)(F)C(F)(F)C(F)(F)C(F)(F)C(F)(F)F [Fluorotelomer alcohol 8+2]
[25]
Conditions	concentration in plasma [ng/mL]
0.25 h	153
24 h	9.08

NC=O [Formamide]
concentration in plasma [ng/mL]
Conditions	0.25 h	2 h	5 h	5 min
[26]	454000	–	816000	–
[27]	–	746000	–	192000

c1ccncc1 [Pyridine]
Conditions	concentration in plasma [ng/mL]
[28]	75400
[29]	41900
[32]	4890
[33]	24500
[34]	4890
[35]	27600

Conditions	concentration in plasma [ng/mL]
[30], 0.5 h	53100
[30], 6 h	59200
[31], 0.5 h	3260
[31], 8 h	954
[36], 4 h	17100
[36], 5 min	9570
[37], 0.5 h	16900
[37], 6 h	14400
[38], 5 min	6630
[38], 8 h	652
